Data from the supplement of paper PMC11417369.
± gives the standard deviation of the averaged measurements. This is one part of the list.

system: PfAP2-LT AP2 domain (GST-tagged); test: gcPBM binding intensity (ln(normalized median fluorescence intensity)); higher = stronger DNA binding
Summary of the method: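 GST-tagged P. falciparum DNA-binding domains produced in E. coli were incubated for 1 h on an Agilent 4 × 180k array of primer-extended double-stranded 36-bp intergenic genomic probes with negative controls. Binding intensity is the highest Masliner-normalised natural-log median intensity across replicate spots of either probe orientation, with bound protein detected by Alexa488 anti-GST antibody at 488 nm.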

Sequence | gcPBM binding intensity (ln)
AAATATCAACAAAAATGTACAAATGTAAAAGAATAT [XGTACX_site4676] | 9.22 ± 0.4
TTAAAAAAAAGACACACACACATACACATATTTATA [CACACA_site7535] | 9.94 ± 0.35
TATATATATATATATACACACATATATATAAATATA [CACACA_site2035] | 9.41
CACAAAAGTAAGCACGCACACACAACCTGAAATAAA [CACACA_site166] | 9.59 ± 0.44
ATATTATATAAATATACACACATTGTTTTATAGCAT [CACACA_site2386] | 9.04 ± 0.35
AAAAAAAAATACATATGTACATATACATATATATAT [XGTACX_site2975] | 8.9 ± 0.41
ATATATTTAATTTATGGTACACATAATTTTTTTAGA [XGTACX_site848] | 8.55 ± 0.44
GAACATACTCAAATAGCACACACATAAATAAAAATG [CACACA_site9283] | 9.52 ± 0.34
AAAATCCACATTTTAGTACACACTTAAAAAATTATT [CACACA_site2955] | 8.71 ± 0.46
TTATATATATATATATGTACGAAAAAGAAAAAAAAG [XGTACX_site6761] | 8.69 ± 0.45
TATATATATATAATATGTACATATAATCAACATTTT [XGTACX_site3915] | 8.8 ± 0.45
TTAGTCATATATATATGTACACACATATATATATTT [XGTACX_site2948] | 9.01 ± 0.33
ATTTTTATATAATGAACACACATATTATATCATTTA [CACACA_site1572] | 8.79 ± 0.42
AAAAGAAAATAAGAAACACACAAAAATATGTAAAAA [CACACA_site7694] | 9.17 ± 0.65
CCATAGATATTTTATACACACATATAACATATTAAT [CACACA_site6312] | 8.96 ± 0.35
ATATTGACAAATATTACACACATATATAAATATGTA [CACACA_site7835] | 8.89 ± 0.41
ATTTATTTTAATATATGTACATATATTTTTTTATTA [XGTACX_site3389] | 8.8 ± 0.47
ATATAATATTACACAAGTACAAAAATTAATACTAAA [XGTACX_site482] | 8.81 ± 0.47
AAACTGTCGCTCATAAAGAAGAATGAAATACATTAA [TGCATGCA_negctrl_site60] | 8.6 ± 0.54
ACCCATGATTGTTACAGTACTCTACTTTCTAATATA [XGTACX_site98] | 8.96 ± 0.46
ATATATGCATATTATACACACATATGTATATACATT [CACACA_site965] | 9.24 ± 0.33
AAAAAAAAAAAAAATGCACACAATGGCTAGCTGTAC [CACACA_site2273] | 9.16 ± 0.27

Sequence | gcPBM binding intensity (ln)
TTTTCTGTATATTGTGTGCACACAATTAACAAAAAA [GTGCAC_site9817] | 9.09 ± 0.4
TGGAGGTCAGTTCACAGTACCCAGGAAATCTACGGA [XGTACX_site1995] | 8.64 ± 0.53
ATAAAATATAAAAAAAGTACAAAAAAAAAAAAAAAA [XGTACX_site6657] | 8.68 ± 0.42
ATTTGAAATGCATGAACACACACAGCTATAAATGCA [CACACA_site8229] | 9.14 ± 0.29
TAGTAATATATATTTTGTACATAAAATAATATATAA [XGTACX_site7971] | 8.57 ± 0.47
CGTTATTATCCACATACACACAGGAATAAAAAATTA [CACACA_site2883] | 9.04 ± 0.47
TATATATGTTAAAACGTGCACATATATATATATATA [GTGCAC_site9589] | 9.725 ± 0.092
TTCTTTTTTTTTCTGGGTACATATATTCCAATCACT [XGTACX_site4770] | 8.93 ± 0.4
TTATAAAAGACAAAAGTGCATATATACATATGTATA | 8.76 ± 0.52
AATATAATTATATGTGGTACAGAAATAATATAAAAT [XGTACX_site2366] | 9.14 ± 0.49
AAATAAATAAATTAACGTACATAATAACATTAATAT [XGTACX_site8567] | 8.86 ± 0.47
ATATATATATATGTATGTACACATATTTTTTAACTT [XGTACX_site431] | 9.32 ± 0.32
TGTAAAACCTCCTACACACACCAATTAACTATTCTA [CACACA_site7074] | 9.36 ± 0.15
TATATATATATTATTAGTACTTATTTTTTTTCATAT [XGTACX_site1279] | 8.79 ± 0.48
TTATATTATAGACACACACACAAAAAAAAAAAAAAA [CACACA_site3816] | 9.3 ± 0.47
TATAACTTTTATAGGTGTACCCAATATTATATATAG [XGTACX_site7673] | 8.56 ± 0.38
CCATCTTTTTTACGATGTACAAGTATAAGGTATACG [XGTACX_site2697] | 8.58 ± 0.41
TATATATAATAAGAAGGTACACGTAAGTAATAATTT [XGTACX_site934] | 9.01 ± 0.42
TTTATATGTTTTGTATTTTTAATAAATATTTTATTA [TGCATGCA_negctrl_site20] | 8.59 ± 0.47
TTGAATTAAAAACATACATGCATATATATATATATA [TGCATGCA_site319] | 9.72 ± 0.071
AATAAATTACTATGTACACACATAAGAGTATAAATA [CACACA_site6940] | 9 ± 0.49
TTATAAAATGGGCAAACACACACAAAAAAAAGATAT [CACACA_site8476] | 9.47 ± 0.38
